Results reported in a collection of fitness landscapes (doi:10.1016/j.celrep.2020.107928).
In all, about 81,000 sequences were measured (“one-hybrid fitness for binding NBS DNA”: median about -0.1, highest 2% from about 0.36 on). Some of the results follow.

B1: Caulobacter ParB omega fusion; a variant is named by its letters at X, in order, B8GW30 (parent)
chain: MESVVVGEPGMSEGRRGLGRGLSALLGEVDAAPAQAPGEQLGGSREAPIEILQRNPDQPRRTFREEDLEDLSNSIREKGVLQPILVRPSPDTAGEYQIVAGERAWRAAQRAGLKTVPIMVRELDDLAVLEIGIIENVQRADLNVLEEALSYKVLMEKFERTQENIAQTIGKSXSHVANXMRLLXLPDEVQSYLVSGELTAXHARAIAAAADPVALAKQIIEGGLSVRETEALARKAPNLSAGKSKGGRPPRVKDTDTQALESDLSSVLGLDVSIDHRGSTGTLTITYATLEQLDDLCNRLTRGI

Variants of: B1
Assay: one-hybrid fitness for binding NBS DNA (the Noc-binding site; scaled: cognate 1, non-cognate 0); higher = stronger binding
Conditions: with NBS DNA site
Summary of the method: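 Pre- and post-selection plasmids were Illumina-sequenced, three replicate libraries were pooled, and any variant with under 10 reads was removed. The libraries were Caulobacter ParB with four specificity codons randomised, selected in E. coli USO through a HIS3 reporter whose site is 19 bp from the promoter. Cells grew 48 hours at 37°C on M9 without histidine, with 0.1 mM IPTG and 5 mM 3-AT. Fitness is the log change in variant-to-wild-type read ratio, rescaled against cognate and non-cognate.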

| Variant | one-hybrid fitness for binding NBS DNA |
| --- | --- |
| RHND | ≤ 0.2 |
| MQVQ | ≤ 0.2 |
| QCWR | 0.49 |
| DPHN | ≤ 0.2 |
| WGRW | ≤ 0.2 |
| QAES | ≤ 0.2 |
| QVRS | 0.482 |
| NLGS | ≤ 0.2 |
| QWCF | ≤ 0.2 |
| QWKG | ≤ 0.2 |
| NSYS | ≤ 0.2 |
| VHMV | ≤ 0.2 |
| QCHD | ≤ 0.2 |
| WSKR | 0.359 |
| TWMS | ≤ 0.2 |
| ASIY | ≤ 0.2 |
| RWAW | ≤ 0.2 |
| LEQT | ≤ 0.2 |
| MYRK | ≤ 0.2 |
| DRPL | ≤ 0.2 |
| PSTK | ≤ 0.2 |
| MWPT | ≤ 0.2 |
| MRGC | ≤ 0.2 |
| GHIC | ≤ 0.2 |
| QHSY | ≤ 0.2 |
| HWNC | ≤ 0.2 |

| Variant | one-hybrid fitness for binding NBS DNA |
| --- | --- |
| VCKA | ≤ 0.2 |
| SWPA | ≤ 0.2 |
| VNNC | ≤ 0.2 |
| HQPS | ≤ 0.2 |
| IHEE | ≤ 0.2 |
| QFPT | ≤ 0.2 |
| FGYL | ≤ 0.2 |
| KEHD | ≤ 0.2 |
| TFHC | ≤ 0.2 |
| RWIN | ≤ 0.2 |
| GHAL | ≤ 0.2 |
| LSAY | ≤ 0.2 |
| RHWF | ≤ 0.2 |
| RVNH | 0.213 |
| YPST | ≤ 0.2 |
| HWWW | ≤ 0.2 |
| ESPV | ≤ 0.2 |
| LLKP | ≤ 0.2 |
| PTDP | ≤ 0.2 |
| EMDI | ≤ 0.2 |
| ADKS | ≤ 0.2 |
| CVSG | ≤ 0.2 |
| MGQS | ≤ 0.2 |
| SMRY | ≤ 0.2 |
| ADPC | ≤ 0.2 |
| ISMR | ≤ 0.2 |

| Variant | one-hybrid fitness for binding NBS DNA |
| --- | --- |
| LGVQ | ≤ 0.2 |
| AWST | ≤ 0.2 |
| QTDG | ≤ 0.2 |
| FLRC | ≤ 0.2 |
| QPLF | ≤ 0.2 |
| DRTT | ≤ 0.2 |
| VCFG | ≤ 0.2 |
| AMCG | ≤ 0.2 |
| QDSL | ≤ 0.2 |
| AFGL | ≤ 0.2 |
| MHMS | ≤ 0.2 |
| AAVS | ≤ 0.2 |
| SRET | ≤ 0.2 |
| WSKV | ≤ 0.2 |
| WAMH | ≤ 0.2 |
| IANR | ≤ 0.2 |
| GMVR | ≤ 0.2 |
| WHQC | ≤ 0.2 |
| NSLA | ≤ 0.2 |
| ASAC | ≤ 0.2 |
| FHRF | ≤ 0.2 |
| NSGL | ≤ 0.2 |
| RCLY | ≤ 0.2 |
| QESL | ≤ 0.2 |
| EVNG | ≤ 0.2 |
| QADL | ≤ 0.2 |

| Variant | one-hybrid fitness for binding NBS DNA |
| --- | --- |
| IKYW | ≤ 0.2 |
| SAQG | ≤ 0.2 |
| STYY | ≤ 0.2 |
| TSGG | ≤ 0.2 |
| LYNC | ≤ 0.2 |
| MMWS | ≤ 0.2 |
| MKNI | ≤ 0.2 |
| RSQP | ≤ 0.2 |
| LLAR | ≤ 0.2 |
| KKKG | ≤ 0.2 |
| FSGR | ≤ 0.2 |
| AAKL | ≤ 0.2 |
| ADLC | ≤ 0.2 |
| NIVA | ≤ 0.2 |
| PTSL | ≤ 0.2 |
| AKHA | ≤ 0.2 |
| WSDE | ≤ 0.2 |
| RTQH | ≤ 0.2 |
| EHAY | ≤ 0.2 |
| SLMH | ≤ 0.2 |
| LRRF | ≤ 0.2 |
| QQTR | 0.648 |
| CARY | ≤ 0.2 |
| TTLR | ≤ 0.2 |
| WVRG | ≤ 0.2 |
| TWPF | ≤ 0.2 |

| Variant | one-hybrid fitness for binding NBS DNA |
| --- | --- |
| NDTR | ≤ 0.2 |
| KVWC | ≤ 0.2 |
| FKSA | ≤ 0.2 |
| TIMT | ≤ 0.2 |
| YFTD | ≤ 0.2 |
| WGFC | ≤ 0.2 |
| QHAT | 0.41 |
| SNVD | ≤ 0.2 |
| QMAS | 0.389 |
| PELS | ≤ 0.2 |
| GKNT | ≤ 0.2 |
| DKTK | ≤ 0.2 |
| GSQT | ≤ 0.2 |
| QMCF | ≤ 0.2 |
| SSSK | ≤ 0.2 |
| SNVI | ≤ 0.2 |
| YRSA | ≤ 0.2 |
| KEDG | ≤ 0.2 |
| RRDR | 0.666 |
| CVVC | ≤ 0.2 |
| GYRM | ≤ 0.2 |
| CVCL | ≤ 0.2 |
| RFME | ≤ 0.2 |
| TYHN | ≤ 0.2 |
| HPDI | ≤ 0.2 |
| DYNW | ≤ 0.2 |

| Variant | one-hybrid fitness for binding NBS DNA |
| --- | --- |
| DTRS | ≤ 0.2 |
| TMNR | ≤ 0.2 |
| QLQP | ≤ 0.2 |
| YKHV | ≤ 0.2 |
| KERC | ≤ 0.2 |
| IHRF | ≤ 0.2 |
| KRKH | 0.482 |
| WCVC | ≤ 0.2 |
| KTHR | 0.269 |
| NFHV | ≤ 0.2 |
| SAIR | ≤ 0.2 |
| ACPE | ≤ 0.2 |
| HQPF | ≤ 0.2 |
| SNTN | ≤ 0.2 |
| TYKC | ≤ 0.2 |
| WYVY | ≤ 0.2 |
| RNFE | ≤ 0.2 |
| VPRR | ≤ 0.2 |
| QAED | ≤ 0.2 |
| NPDG | ≤ 0.2 |
| QEHT | ≤ 0.2 |
| GSTV | ≤ 0.2 |
| MNLD | ≤ 0.2 |
